Laboratory results reported in PubChem BioAssay (NCATS).
The other results are listed elsewhere or left out. The main result of the screen is listed elsewhere. These columns were measured beside it and carry no call. The list favours compounds with an active or inconclusive main result. Words in brackets tell the shape of the fitted curve; partial curves, single points and poor fits give uncertain potencies.

Assay: qHTS Assay for Lipid Storage Modulators (AID 1519)
Conditions: Drosophila S3 cells, BODIPY lipid droplet/cell ratio, laser cytometry, cells loaded with oleic acid
How it was run: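 Cells seeded at 5,000 per well were treated with compounds over a concentration series and loaded with oleic acid (400 uM, as added). Lipid droplet fluorescence (488 nm excitation, 500-530 nm channel) was read by laser-scanning cytometry and normalized to 20 uM Triacsin C.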

[1] = measured here: cell count channel max response
[2] = measured here: lipid (BODIPY) channel AC50
[3] = measured here: lipid channel max response
[4] = measured here: cell number channel AC50
Tags give direction and shape of the fitted curve.

Compound	max response [1]	AC50 [2]	max response [3]	AC50 [4]
COc1ccc(NC(=O)N2CC[C@@]3(CCCN(C(=O)Oc4ccccc4)C3)C2)cc1	21%	0.0355 µM [rising, full curve, poor fit]	34.2%	
CNNC	20.8%	0.0355 µM [rising, full curve]	30.3%	
COc1ccc2[nH]c3c(c2c1)CCN=C3C	-15.4%	14.1 µM [falling, single point]	-66.4%	
C=C(C)CN1CC[C@@]23c4c5ccc(O)c4O[C@H]2c2[nH]c4ccccc4c2C[C@]3(O)[C@@H]1C5	45.2%	20 µM [rising, single point]	45.1%	39.8 µM [rising, single point]
NC1C[C@H]1c1ccccc1 (stereo not given in full)	39.3%	39.8 µM [rising, single point]	64.7%	
CC(C)=CCCC1(C)C=Cc2c(O)c3c(c(CC=C(C)C)c2O1)OC12C(CC4CC1C(C)(C)OC2(C/C=C(/C)C(=O)O)C4O)C3=O (stereo not given)	-13.5%	15.8 µM [falling, partial curve]	-40.7%	
NCCCP(=O)(O)CC1CCCCC1	41.3%	35.5 µM [rising, partial curve, poor fit]	49.5%	35.5 µM [rising, single point]
CC[C@@]1(O)CC(O)c2c(cc3c(c2O)C(=O)c2c(O)ccc(O)c2C3=O)C1C(=O)OC (stereo not given in full)	-26.7%	31.6 µM [falling, single point]	-93.2%	
O=C(O)C1=CCCN(CCOC(c2ccc(C(F)(F)F)cc2)c2ccc(C(F)(F)F)cc2)C1	41.6%	31.6 µM [rising, single point]	44.6%	35.5 µM [rising, partial curve, poor fit]
